# Reference: the supplement of paper PMC10338343
# ± gives the standard deviation. Over roughly 6,600 sequences, “pre-steady-state target cleavage rate” has its median near 0.07; the highest 2% begin near 0.72. The entries are a selection whose mix differs from that of the whole data set.
# Tested on: MIWI (PIWIL1) piRISC loaded with Kctd7 piRNA (30 nt)
# Assay: pre-steady-state target cleavage rate (min^-1); MIWI and MILI are mouse PIWI proteins and EfPiwi is from a freshwater sponge; tags in brackets are library labels; higher = faster piRNA-guided slicing of the target
# Details: guide: Kctd7 piRNA 5'p-UGUUAAUCUCUCAGAGAAGGUGACAGUGAU; auxiliary factor: 500 nM mouse GTSF1
# Outline: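 A transcribed, DNA-blocked target RNA library […] was incubated at 33 °C for 0–8 or 0–960 min with 1 nM active affinity-purified piRISC carrying one synthetic guide, in HEPES–potassium acetate buffer with or without 500 nM GTSF1 partner protein. Uncleaved targets were then sequenced and normalised to depth and to weakly complementary targets. Data from three trials were pooled, with k3 capped at 0.0001 min^-1, and a burst-and-steady-state fit yielded the pre-steady-state cleavage rate.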
# 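Note: 1 nM active piRISC with 0.1 nM target library at 33 °C single turnover.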
row,Sequence,pre-steady-state target cleavage rate
1,UAGUGACACACCUUCUCUGAGAGAUUAACCA,0.383 ± 0.032
2,UAGUGAGUCACCUUCUGUGAGAGAUAUUGA,0.00535 ± 0.0039
3,UAGUGACACACCCUCUCUGAGAGAUUAACA,0.502 ± 0.033
4,UAGUGACAGACCUUCUCUGAGAGAUUAGCA,0.0403 ± 0.0087
5,UUCAGUGUCACCUUCUCUGAGAGAUAUUGA,0.0663 ± 0.021
6,UAGUGACAGUCCUUCACUGAGAGAUAAACA,0.0071 ± 0.0041
7,UAGUGACUCACCUUCGCUGAGAGAUUAACA,0.0979 ± 0.016
8,UAGUGUGUCACCUUCUCUGAGAGAUUAGACA,0.0803 ± 0.017
9,UAGUGAGUCACCUUCUCUGAGAGAUUAUCA,0.272 ± 0.035
10,UAGUGUGUGUCCUUCUCUGAGAGAUUAACA,0.297 ± 0.023
11,UAGUGACUCACCUUCUGAGAGAGAUUAAGA,0.00445 ± 0.0032
12,UAGUCUGUCAGCUUCUCUGAGUGAUUAACA,0.0153 ± 0.002
13,UUCACUGUCACCUUCUACUGAGAGAUUAACA,0.155 ± 0.047
14,UAGUGUGUCACGUACUCUGAGAGAUUAACA,0.106 ± 0.012
15,UAGUGAGUCACCUUCAGUGAGAGAUUAUGA,0.00574 ± 0.0046
16,AUCACUGUCAGCUUCUCUGAGAGAAUAACA,0.3 ± 0.052
17,UAGUGACACACCAUCUCUGUGAGAUUAACA,0.0356 ± 0.0058
18,UUCAUUGUCACCUUCUCUGAGAGAUUAACA,0.615 ± 0.033
19,UAGUGACUCAUCUUCUCUGAGAGAUUAACA,0.652 ± 0.035
20,UUCACUGUCACCUACUCAGAGAGAUUAACA,0.145 ± 0.015
21,UACACUGUUACCUUCUCUGAGAGAUUAACA,0.441 ± 0.024
22,AUCACAUGUCACCUUCUCUGAGAGAUUAACA,0.467 ± 0.027
23,AUCACUGUCUCCUUCUGUGAGAGAUUAACA,0.642 ± 0.033
24,UAGUGACACACCUUCUCUCAGAGAUUAAGA,0.0126 ± 0.0058

row,Sequence,pre-steady-state target cleavage rate
1,UUCACUGUCACCUUCUCAGAGAGUUUAACA,0.365 ± 0.067
2,UACACUGUCACCUACUCUGAGAGAUUUUGA,0.0418 ± 0.012
3,UACAGUGUGACCUUCUCUGAGAGAUUAACA,0.496 ± 0.026
4,UUCACUGUCACGUUGUCUGAGAGAUUAACA,0.285 ± 0.015
5,UAGACUGUCACCUUCACUGUGAGAUUAACA,0.169 ± 0.012
6,UUCAGUGUCACCUUCUCUGAGUGAUUAACA,0.0456 ± 0.008
7,UAGUGACAGUGGAUCUCUGAGAGUUUAUCA,< 0.0001
8,UAGACUGUCACCUUCUCUGAGAGACUAACA,0.349 ± 0.029
9,UACACUGUCACCUUCUCUGAGCAGAUUAACA,0.00798 ± 0.004
10,UACACUGUCACCUUCUCUGAGAGAAAUAGA,0.0252 ± 0.0085
11,AUCACAGUCACCUUCUGUGAGAGAUUAACA,0.552 ± 0.034
12,UAGUGACACACCUUCACUGUGAGAUUAACA,0.0688 ± 0.012
13,UAGUCUGUCACCUACUCUGACAGAUUAACA,0.061 ± 0.013
14,UAGUGUGUCACCUACUCUGAGAGUUUAACA,0.286 ± 0.059
15,AUGUGUGUCACCUUCUCUGAGAGAUUUUGA,0.121 ± 0.026
16,AUCACUGUCACCUAGUCUGAGAGAUAUUGA,0.0229 ± 0.009
17,UAGUGUGUCACCUUCUCUGAGAGAUGUAACA,0.228 ± 0.028
18,UAGACUGUCAACCUUCUCUGAGAGAUUAACA,0.282 ± 0.023
19,UAGUGACAGACCUUCCCUGAGAGAUUAACA,0.0526 ± 0.0082
20,UAGUCUGUCACCUUCUGUGAGAGAUUAACA,0.231 ± 0.019
21,UAGACUGUCACGUUCUCUGAGAGUUUAACA,0.0806 ± 0.014
22,UUCACUGACACCUUCUCUGAGAGAUUAUCA,0.2 ± 0.034
23,UAGUCUGUCACCUUCACUCAGAGAUUAACA,0.0361 ± 0.0082
24,UAGUGACUCACCUUCUCUGAGAGAUUAACA [g2:g23:cont:t1A],0.514 ± 0.043

row,Sequence,pre-steady-state target cleavage rate
1,UAGUGACACUGGUUCUCUGAGAGAUUAAGA,0.0135 ± 0.003
2,UAGUGAGUCACCUUCUGUGAGAGUUUAACA,0.144 ± 0.02
3,UAGUGAGUCACCUUCACAGAGAGAUUAACA,0.046 ± 0.0076
4,UACAGUGUCACCUUCUCUGUGAGAUUAACA,0.259 ± 0.016
5,UAGACUGUCACCUUCUGUGAGAGAUUUACA,0.263 ± 0.025
6,UAGUGAGUCACCUCUCUGAGAGAUUAACA,0.241 ± 0.032
7,UAGUCUGUCACCUUCUCUGAGAGAUUUUCA,0.109 ± 0.019
8,AUCACUGACACCUUCUCUGUGAGAUUAACA,0.2 ± 0.014
9,AUCACUGUCACCUUCUCUGAGAGAUAUAACA,0.415 ± 0.053
10,UAGUGUGUCACCUUCUCUCAGAGAUUUUGA,0.0124 ± 0.006
11,UAGUGAGUCACCUUCUCUGAGAGAUCAACA,0.143 ± 0.027
12,UACACUGUCACGAUCUCUGAGAGAUUAAGA,0.0542 ± 0.013
13,AUCACUGUCUCCAUCUCUGAGAGAUUAACA,0.675 ± 0.041
14,UUCACUGUGUCCUUCUCUGAGAGAUUUUGA,0.0357 ± 0.0098
15,UUCACUGUCUCCUUCACUGAGAGAUUAACA,0.393 ± 0.032
16,AUCACUGUCACCUUCUCUGAGAGAUCAACA,0.315 ± 0.039
17,UAGUGACAGUCCUUCUCUGACUGAUUAUGA,< 0.0001
18,UAGUCUCACACCUUCUCUGAGAGAUUAAGA,0.0327 ± 0.0072
19,UAGUCUGUCACCUUGUCUGAGAGAUAAACA,0.149 ± 0.02
20,UAGUGUGUCAGCUUCUCUCAGAGAUUAACA,0.088 ± 0.0099
21,UAGUGAGUGACCUACUCUGAGAGAUUAACA,0.298 ± 0.026
22,UAGUCUCACACCUUCUCUGAGAGAUAUUGA,0.00988 ± 0.0039
23,UAGUCUCUGACCUUCUCUGAGAGAUUAACA,0.145 ± 0.013
24,UAGUGAGUCACCUUCUCUGAGAGAUUAACCA,0.464 ± 0.039
